The campaign covered roughly 410,000 compounds. About 1,200 (0.29%) were called active. This list was built around the results that the source calls inconclusive (neither active nor inactive); the mix of calls is not that of the screen. Calls follow the shape of the dose curve; as a rule, active = well fitted activation curve with a large enough effect; inconclusive = small, poorly fitted or top-dose-only effect; inactive = flat fitted curve, though single readings scatter. Potencies of inconclusive entries are doubtful fits and often do not repeat.
Experiment: qHTS of Nrf2 Activators; also: nearly all actives have a fitted effect of over 65% in size; as to activation: % of control where 0% means no effect
Settings: AREc32 ARE-luciferase reporter (MCF7-derived line), luminescence, 24 h; activation: at 46.1 µM (top of the series)
Summary of the method: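 Reporter line AREc32 (ARE-Fluc), seeded overnight in OPTI-MEM with 5% FBS; compound pin-transferred, 24 hr at 37 deg C, 5% CO2; luminescent read-out.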
Potency is read from the fitted curve at half-maximal effect; tags tell the direction and shape of the fitted curve.

Row | Structure (SMILES) | Potency | activation
1 | O=C(OCn1ncc(Br)c(Br)c1=O)c1ccc(F)cc1 | inconclusive: 3.55 µM [activator, single point] | 
2 | Cc1cc(NC(=O)c2ccco2)sc1C | inconclusive: 12.6 µM [activator, partial curve, poor fit] | 
3 | NC(=O)c1nc[nH]c1C(=O)Nc1cccc(C(F)(F)F)c1 | inconclusive: 17.8 µM [activator, single point] | 
4 | CC1CN(CCS(=O)(=O)c2cc(Cl)ccc2Cl)CC(C)O1 (stereo unspecified) | inconclusive: 17.8 µM [activator, single point] | 
5 | OC(c1cccc(OCc2ccccc2)c1)c1nnc(-c2ccccc2)o1 (stereo unspecified) | inactive | 
6 | Cc1ccc(NC(=O)c2c(C)nc3sc(C(=O)Nc4ccc(F)cc4)c(N)c3c2-c2ccc(Cl)cc2)c(C)c1 | inactive | 
7 | COc1cc(/C=N/Nc2nc3ccccc3[nH]2)cc(OC)c1O | inconclusive: 20 µM [activator, single point] | 
8 | COc1c(-c2ccc(O)cc2)oc2cc(O)cc(O)c2c1=O | inconclusive: 35.5 µM [activator, single point] | 
9 | COc1ccc(S(=O)(=O)N2CCN(CC(=O)N3CCc4ccccc4C3)CC2)cc1OC | inactive | 
10 | N#Cc1c(-c2ccco2)cc(-c2ccc(F)cc2)nc1N | active: 1 µM | 
11 | Cc1cc(C(=O)CCl)c(C)n1-c1ccon1 | inconclusive: 31.6 µM [activator, single point] | 
12 | CC(=O)Nc1ccc2c(c1)Cc1c(F)cccc1-2 | inconclusive: 11.2 µM [activator, partial curve, poor fit] | 
13 | O=[N+]([O-])c1ccc(Cl)c(-c2ccc(/C=N/n3cnnc3)o2)c1 | inconclusive: 2.51 µM [activator, partial curve, poor fit] | 
14 | Cc1[nH]ccc2cc3nc4ccccc4c3cc12 | inconclusive: 3.55 µM [activator, partial curve, poor fit] | 
15 | CC(=O)NCCNC(=O)C1(C)Cc2c(-c3ccccc3)ccnc2O1 (stereo unspecified) | inactive | 
16 | Cc1ccc(C(=O)CSc2ncnc3ccccc23)o1 | active: 12.6 µM | 
17 | Cc1ccc(NC(=S)C2=C(O)c3sccc3N(C)S2(=O)=O)cc1 | inactive | 
18 | CCOC(=O)C1=C(COC(=O)c2ccc([N+](=O)[O-])o2)NC(=O)NC1C (stereo unspecified) | inconclusive: 20 µM [activator, single point] | 
19 | Cc1ccc([N+](=O)[O-])cc1NC(=O)c1ccc(C(C)(C)C)cc1 | inconclusive: 2.24 µM [activator, full curve, poor fit] | 
20 | O=C(Cc1nnc(NC(=O)c2ccccc2)s1)N/N=C/c1ccco1 | inconclusive: 12.6 µM [activator, partial curve] | 
21 | CCN1C(=O)/C(=C2\C=Cc3ccccc3N2CC)SC1=S | inconclusive: 3.55 µM [activator, partial curve, poor fit] | 
22 | O=[N+]([O-])c1ccc(Sc2nnnn2-c2ccccc2)c(Cl)c1 | inconclusive: 22.4 µM [activator, single point] | 
23 | C/C(=N\Nc1nc2ccccc2s1)c1ccc(Br)s1 | inconclusive: 1.12 µM [activator, full curve, poor fit] | 

Row | Structure (SMILES) | Potency | activation
24 | COC(=O)c1sc(S(=O)(=O)Oc2ccccc2NC(C)=O)c(C(=O)OC)c1C | inconclusive: 28.2 µM [activator, single point] | 
25 | CC(=O)N1CCN(c2ccc(NC(=O)c3ccc([N+](=O)[O-])o3)cc2Cl)CC1 | inconclusive: 3.16 µM [activator, partial curve, poor fit] | 
26 | COc1ccc(OC)c(CNc2ncnc3onc(-c4ccc(Cl)cc4)c23)c1 | inactive | 
27 | Cc1cc[n+](CC(=O)c2ccccc2)c2ccccc12 | inactive | 
28 | Cc1cccc(CSc2nc3[nH]ncc3c(=O)[nH]2)c1 | inconclusive: 14.1 µM [activator, partial curve, poor fit] | 
29 | C=C1[C@@H](O)[C@H](CC(C)C)N(Cc2ccccc2Br)S1(=O)=O | inconclusive: 3.98 µM [activator, single point] | 
30 | O=C(Nc1cccc(C(F)(F)F)c1)C(Sc1ncnc2ccccc12)c1ccccc1 (stereo unspecified) | inconclusive: 31.6 µM [activator, single point] | 
31 | O=C(Nc1ccc2c(c1)OCCO2)c1cnc2n(c1=O)CCS2 | inactive | 
32 | N/C(=N\OC(=O)c1cccs1)c1cccc(Br)c1 | active: 11.2 µM | 
33 | Cc1ccc2nc(SCC(=O)Nc3ccc(F)c([N+](=O)[O-])c3)[nH]c2c1 | inconclusive: 25.1 µM [activator, partial curve, poor fit] | 
34 | Cc1ccccc1NC1=CC(=O)CC(C)(C)C1 | inactive | 
35 | CC(=O)N1N=C(c2ccccc2)OC1c1ccc([N+](=O)[O-])s1 (stereo unspecified) | inconclusive: 22.4 µM [activator, single point] | 
36 | O=C(Nc1ccc2c(c1)OCCO2)c1ccc2ccccc2n1 | active: 7.94 µM | 
37 | Clc1ccccc1NN=Cc1ccccn1 | active: 7.08 µM | 
38 | CCOC(=O)c1c(NC(C)=O)sc2c(O)c(CN3CCN(CC)CC3)ccc12 | inconclusive: 35.5 µM [activator, partial curve, poor fit] | 
39 | O=C(/C=C/c1ccco1)N1CCC(Cc2ccccc2)CC1 | inconclusive: 22.4 µM [activator, single point] | 
40 | O=C(O)/C=C\C(=O)Nc1ccccc1C(=O)NCc1ccccc1 | inconclusive: 22.4 µM [activator, single point] | 
41 | CCN(CC)c1ccc2c(C)c(CO)c(=O)oc2c1 |  | inactive: -1% [at 9.22 µM]
42 | CCOC(=O)Cc1csc(NC(=O)/C=C/c2ccco2)n1 | inconclusive: 1.58 µM [activator, full curve] | 
43 | Cc1ccc(-n2c(SCC(=O)N3CC(=O)Nc4ccccc43)nc3ccccc3c2=O)cc1 | inactive | 
44 | CCc1nc2oc3ccccc3c(=O)c2cc1C(=O)OC | inconclusive: 11.2 µM [activator, partial curve, poor fit] | 
45 | COc1ccc(-n2cc(CNCCCn3ccnc3)c(-c3ccccc3Cl)n2)cc1 | inactive | 
46 | CCc1cccc2c(C(=O)COC(=O)/C=C/c3ccc(O)c(OC)c3)c[nH]c12 | inactive | 

— PubChem BioAssay AID624171 (National Center for Advancing Translational Sciences (NCATS), 2012)
